# Source: patent US7319000B1, “Compositions and methods for eliciting immune or anti-infective responses” (priority 1992, dated 2008)
# Experiments:
# [1] = system: BALB/c mice; assay: Anti-peptide antibody response (ELISA) in BALB/c mice immunized with peptide multimers; type: in vivo; conditions: high molecular weight forms of the peptides
# [2] = system: PLN cells from B6C3F1 mice; assay: In vitro proliferation (3H-TdR) of PLN cells from immunized B6C3 F1 mice; type: in vivo; parameters: key: −: cpm values are corrected and categorized according to unrelated antigen response in vitro.; •: Not determined.; +: cpm values are corrected and categorized according to unrelated antigen response in vitro.; ++: cpm values are corrected and categorized according to unrelated antigen response in vitro.; +++: cpm values are corrected and categorized according to unrelated antigen response in vitro.; ++++: cpm values are corrected and categorized according to unrelated antigen response in vitro; conditions: in vitro antigen: GP 160
# [3] = system: PLN cells from A SW × Balb/c F1 mice; assay: In vitro proliferation (3H-TdR) of PLN cells from immunized A.SW x BALB/c F1 mice; type: in vivo, A.SWXBALB/C F1 mice; parameters: key: −: cpm values are corrected and categorized according to unrelated antigen response in vitro.; •: Not determined.; +: cpm values are corrected and categorized according to unrelated antigen response in vitro.; ++: cpm values are corrected and categorized according to unrelated antigen response in vitro.; +++: cpm values are corrected and categorized according to unrelated antigen response in vitro.; ++++: cpm values are corrected and categorized according to unrelated antigen response in vitro; conditions: in vitro antigen: GP 160
sequence,measurement,setting,value
"CRIKQIINMWQGVGKAMYAPPIGGQIRC [Peptide 67, gp160 aa 417-444]",anti-peptide antibody response (in words),[1],high antibody titers
same,"In Vitro Proliferation of PLN Cells from B6C3F1, GP 160",[2],−
same,"In Vitro Proliferation of PLN Cells from A SW × Balb/c F1, GP 160",[3],++
